Results published in ChEMBL document CHEMBL4888484, “Replenishing the malaria drug discovery pipeline: Screening and hit evaluation of the MMV Hit Generation Library 1 (HGL1) against asexual blood stage Plasmodium falciparum ,using a nano luciferase reporter read-out” (2022).
Several values for one entry are separate records, joined by “and”; a condition that tells them apart may be missing. Equal entries are not always repeated. About 540 (0.36%) of roughly 150,000 compounds showed an effect of 50% or more. This is one part of the list.

Test system: Plasmodium falciparum
Assay: Primary screen in NF54 nanoGlo assay, in single point, at 2uM, 72h; a lower Z score goes with more inhibition
Assay type: functional, Erythrocyte
Settings: timepoint 72 hour

SMILES	% Inhibition	Z score	% Inhibition (2 µM)
Cc1ccnc(NC(=O)c2ccc(-c3ccccc3F)o2)c1	-4%	0.69	
Cn1nc(-c2ccccc2)c2c1c(-c1ccccc1)nn2C	-36%	4.26	
C[C@]1(C(=O)NCc2nnc3ccccn23)CC1(Cl)Cl	-3%	0.42	
Cc1ccc(NC(=O)NC(=O)[C@H](C)N(C)CC(=O)Nc2cccc(C)c2C)c(C)c1	-2%	0.17	
CN(C)CC[C@@H](c1ccc(Cl)cc1)c1ccccn1 [DEXCHLORPHENIRAMINE]	28%	-3.19	
CC(C)Cc1cc(C(=O)N(C)C[C@H](C)CN2CCCC2)on1	-5%	1.04	
CN(CC(C)(C)O)C(=O)N[C@H]1CCCOc2c1ccc1ccccc21	-11%	1.23	
CCN1CCC(N2CCc3onc(-c4ccccc4F)c3C2)CC1	-11%	1.55	
CN(CCC1OCCO1)c1ccc(F)cc1	-7%	0.96	
O=C(Nc1c[nH]nc1-c1ccccc1)c1ccc2c(c1)C(=O)N(C[C@H]1CCCO1)C2=O	-5%	0.93	
CCCS(=O)(=O)N1CC(=O)N(c2ccccc2CC)[C@](C)(C(=O)NC2CCCC2)C1	-10%	1.24	
CC(C)c1cc(Nc2ccc3ccccc3c2)n2nc(-c3cccnc3)nc2n1	7%	-1.21	
Cn1cc(-c2ccc(C(=O)NC(C)(C)[C@H](O)C(F)(F)F)o2)cn1	-9%	1.22	
Cc1cc(CN2CCN([C@@H](C)C(=O)Nc3nccs3)CC2)on1	-1%	0.14	
CCCC[C@H](O)CN1CCN(c2nc(-c3ccccc3)nc(CC)c2Cc2ccccc2F)CC1	7%	-0.92	
C[C@@H]1CN(CCCC(=O)c2ccc(F)cc2)CC[C@]1(C)O	-3%	0.43	
CCC(=O)N1CCC[C@@H]1c1nc(C(C)(C)C)co1	-4%	0.6	
CC(C)c1ccc2nc(-c3cnc4cnccn34)[nH]c(=O)c2c1	-2%	0.24	
CC1CCC(NC(=O)[C@H]2CCCN(S(=O)(=O)c3ccc4c(c3)NC(=O)CO4)C2)CC1 (some centres not stated)	1%	-0.17	
Cc1cc(CN(C)C(=O)[C@H](C)N2CCN(C)CC2)ccn1	-3%	0.57	
O=C(c1ccc2[nH]ccc2c1)N1CCC(c2nccn2CC2CC2)CC1	-13%	1.62	

SMILES	% Inhibition	Z score	% Inhibition (2 µM)
COCCO/C(=N/C(=O)c1ccc2c(c1)OCO2)NCc1ccc2c(c1)OCO2	7%	-0.95	
COc1cc(NC(=O)NCCC2(O)CCC2)c(OC)c(C)c1OC	-6%	0.6	
Cc1cc(N2CCN(S(=O)(=O)c3ccccc3F)CC2)nc(N2CCOCC2)n1	1%	-0.21	
CCOc1cc(CN2CCOC3(CCCC3)C2)ccc1OC	-14%	2.23	
COc1cc(-c2ncc(F)c(N3CCOCC3)n2)c(Cl)cn1	8%	-1.36	
Cc1nc(CN(C)CC[C@H]2CCCCO2)n(C)c1C	-15%	2.36	
COC(=O)N1CCCC[C@H]1C(=O)N(C)CC1(CO)CCC1	-11%	1.73	
CCc1noc(CON=C(N)c2ccccc2)n1	3%	-0.39	
Cc1c(CNC2CCCCC2)c(C(=O)O)c(C)n1Cc1ccccc1Cl	-5%	0.63	
CCn1nc(C)c(C(=O)N[C@@H](C2CCOCC2)C2(CO)CCC2)n1	-6%	0.69	
COCCc1nnc(NC(=O)[C@H](C)Oc2ccccc2)o1	2%	-0.22	
Cc1noc(C)c1[C@H](C)NCc1nc(C(C)(C)C)no1	-4%	0.4	
Cc1cc(C)cc(CN2CCN(C(=O)c3ccc(CO)o3)CC2=O)c1	-17%	1.92	
Cc1nn(-c2ccc(F)cc2)c2c1c(=O)c(C(=O)Nc1cccc(Cl)c1)cn2C	0%	-0.01	
CC(C)COCCC(=O)NCCCN1C(=O)CCC1=O	-2%	0.34	
COc1ccc(NCC(=O)Nc2cc(C(F)(F)F)cc(NC(=O)CNc3ccc(OC)cc3)c2Cl)cc1	-10%	1.34	
O=C(c1ccc(O)c(F)c1)N1CCCCC12CC2	-15%	1.42	
CCCN1CCC(N2CCN(S(=O)(=O)c3ccc4ccccc4c3)CC2)CC1			0% and -6%
C[C@](O)(CNC(=O)Cc1cccc(O)c1)C1CCCC1	-16%	1.33	
Cc1nn(C)c(C)c1C(=O)C(=O)N1CCC(O)CC1	-4%	0.62	
CCc1c(C)sc(NC(=O)[C@H](CC)c2ccccc2)c1C(=O)N1CCOCC1	-4%	0.47	

SMILES	% Inhibition	Z score	% Inhibition (2 µM)
FC(F)(F)c1ccccc1CN1CCc2nncn2CC1	5%	-0.75	
Cc1c(C(=O)NC[C@H]2CCCC(C)(C)O2)nnn1C(C)C	-2%	0.2	
NS(=O)(=O)C1CCN(C(=O)[C@H]2C3CCC(CC3)[C@@H]2C(F)(F)F)CC1	-7%	1.37	
CCOc1cc(CNCc2ccoc2)ccc1O[C@@H](C)C(=O)N(C)C	-11%	1.73	
CCN(CC1CCCO1)C(=O)NC1C(C)CCCC1C (configuration not stated)	-11%	1.49	
COc1nccnc1N(C)Cc1cnn(C)c1C	-5%	0.98	
Cc1nnc(NCc2ccc(-c3cccc(Cl)c3Cl)o2)n1C	-8%	0.79	
O=S(=O)(c1cccnc1NCc1cscn1)N1CCCCC1	-8%	1.49	
COC(=O)c1ccc(NC(=O)CN2CCN(c3cccc(Cl)c3)C2=O)cc1	0%	0.05	
CN(Cc1ccc[nH]1)C(=O)NCc1cnccc1C(C)(C)C	-10%	1.09	
Cc1ccc2nc(-c3ccccc3)c(NC(=O)c3ccc(S(=O)(=O)N4CCOCC4)cc3)n2c1	-50%	5.92	
Cc1nc(C(=O)NCCCN2CCC[C@H](C)C2)cs1	-13%	1.8	
CCc1cc(=O)n(Cc2ncc(C(C)(C)C)o2)cn1	-2%	0.25	
Cc1nn(C)cc1NC(=O)CN(C)C1CCCC1	2%	-0.37	
O=C(C[C@H]1C(=O)NCCN1Cc1ccc2ccccc2c1)NC1CCC1	-16%	2.3	
C[C@@H](Cc1ccc2c(c1)CCO2)NC(=O)c1ccsc1	0%	-0.02	
O=C(C[C@@H]1O[C@H](CNS(=O)(=O)c2ccc(Cl)cc2)[C@@H](O)[C@H]1O)N1CCc2ccccc21	33%	-3.72	
CN(C)c1noc(CN2CCc3c(F)cc(F)cc3C2)n1	10%	-0.88	
CCCCCOCC(=O)Nc1cnn2ccccc12	1%	-0.07	
COc1ccnc(N2C[C@H](NC(=O)C(C)(C)OC)[C@@H](C3CC3)C2)n1	0%	0.04	
C[C@H]1COCCN1C(=O)NCc1nc2ccccc2[nH]1	-10%	1.44	

SMILES	% Inhibition	Z score	% Inhibition (2 µM)
Cc1cc(Cl)ccc1NC(=O)N(C[C@H]1CCC(=O)N1)C(C)C	-4%	0.59	
CN1CC2(CN(C(=O)c3cn(C)nc3C3CC3)C2)OC1=O	-3%	0.51	
Cc1nc[nH]c1CN1C[C@H]2CC[C@@H](C1)N(C(=O)CCc1c(C)n[nH]c1C)C2	3%	-0.41	
COc1c(Br)cccc1C(=O)NCc1nonc1C	9%	-1.77	
C[C@@H](c1ccon1)N(C)C(=O)CCc1nnc(CCCCc2ccccc2)o1	-6%	1.25	
Cc1cccc(NC(=O)Cn2ncn3c(C)c(C(=O)NCc4ccccc4)c(C)c3c2=O)c1C	-6%	0.91	
Cc1cc(C(=O)N(Cc2ccccc2)[C@H]2C[C@H]3CC[C@@H](C2)N3C)c(=O)[nH]c1C	-24%	2.61	
Cc1cc(C)c(C(=O)N2CCC(n3cc(C4CC4)nn3)CC2)cc1C	30%	-2.71	
CC(C)c1nc(-c2ccc3ccccc3n2)n(CCO)n1	-1%	0.14	
O=S(=O)(N1CCCCC1)N(Cc1cccs1)Cc1cccs1	-4%	0.38	
CC(=O)Nc1cc(-c2ccc(F)cc2)nn1-c1nc(-c2ccc(Cl)cc2)cs1	12%	-1.44	
O=C(Nc1ccccc1N1CCCN(Cc2ccccc2Cl)C1=O)c1ccc(F)cc1F	-6%	0.76	
Cc1ccc2nc(CCCNC(=O)CN3C(=O)CNC3=O)oc2c1	-8%	1.61	
O=C(Nc1nnc(CCS(=O)(=O)c2ccccc2)o1)[C@@H]1COc2ccccc2O1	-9%	1.6	
Cc1nc(NC(C)C)sc1C(=O)NCC(C)C	-1%	0.15	
O=C(NCc1cccnc1Oc1ccc(F)c(F)c1)[C@@H](O)c1ccccc1	-9%	1.27	
CCc1nc2c(c(NCc3cccc(OCCOC)c3)n1)CCNCC2	-3%	0.48	
O=C(O)c1cc2c(cc1C(=O)Nc1ccccc1C(F)(F)F)=[O+]c1ccccc1-c1ccccc1[O+]=2	-2%	0.33	
CN(CC(=O)N1CCNC(=O)C1)C[C@]1(O)CCc2ccccc21	3%	-0.45	
C[C@@H](CNC(=O)c1nc2n(n1)CCCN2)c1cccs1	-15%	1.72	
O=C(c1ccc(-n2cncn2)nn1)N1CCc2ccccc21	1%	-0.2	
